# In PubChem BioAssay AID1476 (National Center for Advancing Translational Sciences (NCATS), 2009):
# Among all 200,000 compounds or so, about 4,500 (2.2%) were called active. The inconclusive results got no clear call from the source; some entries with a clear call stand among them for comparison. Calls come from the whole dose curve; as a rule, active = well fitted inhibition curve with a large enough effect; inconclusive = small, poorly fitted or top-dose-only effect, or effect the other way; inactive = flat fitted curve, though single readings scatter. Where the call is inconclusive, the potency comes from a doubtful curve fit.
# Target: Cruzipain (Trypanosoma cruzi) (UniProt P25779)
# Chain of UniProt P25779 (P25779 whole entry, looked up): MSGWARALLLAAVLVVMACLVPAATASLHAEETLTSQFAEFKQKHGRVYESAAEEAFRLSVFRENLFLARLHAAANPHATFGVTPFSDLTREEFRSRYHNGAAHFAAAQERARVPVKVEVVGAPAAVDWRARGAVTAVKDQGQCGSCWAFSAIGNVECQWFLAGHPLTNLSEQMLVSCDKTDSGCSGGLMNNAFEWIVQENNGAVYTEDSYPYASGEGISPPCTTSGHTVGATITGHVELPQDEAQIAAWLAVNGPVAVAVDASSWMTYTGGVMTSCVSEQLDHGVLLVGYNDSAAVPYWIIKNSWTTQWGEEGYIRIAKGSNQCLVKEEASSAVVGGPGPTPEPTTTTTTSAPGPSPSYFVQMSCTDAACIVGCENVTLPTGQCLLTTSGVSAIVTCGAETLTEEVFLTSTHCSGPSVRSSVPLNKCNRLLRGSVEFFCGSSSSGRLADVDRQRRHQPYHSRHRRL
# Experiment: qHTS Assay for Promiscuous and Specific Inhibitors of Cruzain (without detergent); note: nearly all actives have a fitted effect of over 40% in size;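 for max response, negative = inhibition: plate controls were enzyme without inhibitor for no effect and buffer without enzyme for full effect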
# Conditions: purified cruzain, Z-FR-AMC fluorescence, no detergent
# Method in brief: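 Detergent-free condition (0.00005% Triton X-100) in acetate buffer pH 5.5 with DTT. 1.5 nM enzyme and compound were pre-mixed 15 min, then 2 uM Z-FR-AMC substrate added; reaction progress from fluorescence change between first and third reads (60 s).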
# Potency is the fitted concentration of half-maximal effect; tags give direction and shape of the fitted curve.
SMILES,Potency,"max response, negative = inhibition"
Cc1nc2cnc(N3CCN(C)CC3)nc2n(CCC#N)c1=O,"inconclusive: 31.6 µM [inhibitor, single point]",–
COc1ccc(N2CCN(c3nc(NCCO)nc(N4CCOCC4)n3)CC2)cc1,"inconclusive: 39.8 µM [activator, single point]",–
Cc1noc(C)c1-c1nc(Nc2ccc(F)cc2)c2ccccc2n1,"inconclusive: 31.6 µM [inhibitor, single point]",–
CCOc1ccc(CC(=O)NCc2ccc3c(c2)CCN3C(=O)c2ccc(F)cc2)cc1OCC,"inconclusive: 10 µM [activator, partial curve]",–
COC(=O)c1[nH]c2cccc(OC)c2c1NC(=O)CN1CCN(c2cccc(OC)c2)C(C)C1 (configuration not stated),"inconclusive: 31.6 µM [activator, single point]",–
Cc1ccc2cc(C#N)c(SCC(=O)NNC(=O)Cc3ccccc3)nc2c1,active: 10 µM,–
Cc1cccc(C)c1NC(=O)c1cc2sccc2n1Cc1ccc(F)cc1,"inconclusive: 0.01 µM [activator, full curve, poor fit]",–
Cc1ccc(NC(=O)NCc2c(-n3cccc3)sc3c2CCCC3)c(Cl)c1,–,inactive: -0.144%
COC(=O)COc1ccc(S(=O)(=O)Nc2ccc3c(c2)OCO3)cc1Cl,–,inactive: -9.43%
Fc1ccccc1Cc1nnc2n1N=C(c1ccc(Cl)cc1)CS2,"inconclusive: 31.6 µM [inhibitor, single point]",–
Cc1ccc(/C=c2\s/c(=C(/C#N)C(=O)N3CCCC3)n(Cc3ccco3)c2=O)s1,"inconclusive: 25.1 µM [inhibitor, single point]",–
O=C(CSc1nc2ccccc2c(=O)n1-c1ccc(F)cc1F)c1c[nH]c2ccccc12,"inconclusive: 39.8 µM [inhibitor, single point]",–
Cc1ccn2c(=O)c(NC(=O)c3cccc([N+](=O)[O-])c3C)c(C)nc2c1,–,inactive: -14.6%
CCOC(=O)C1CN(S(=O)(=O)c2ccc(OC)cc2)c2cc(S(=O)(=O)CC)ccc2O1 (configuration not stated),"inconclusive: 39.8 µM [activator, single point]",–
CCN(CCCNC(=O)CN1N=C(c2ccc(C)cc2)CCC1=O)c1ccccc1,"inconclusive: 39.8 µM [activator, single point]",–
Cc1ccc(COC(=O)c2ccc(-c3nnn(Cc4ccc(C)cc4)n3)cc2)cc1,–,inactive: -7.48%
Fc1ccc(-n2ncc3c(NCCCc4ccccc4)ncnc32)cc1,"inconclusive: 31.6 µM [inhibitor, single point]",–
CCOc1ccc(C2c3[nH]c4ccccc4c3CCN2C(=O)CCC2CCCC2)cc1 (configuration not stated),"inconclusive: 12.6 µM [inhibitor, partial curve]",–
CCCCN(c1ccccc1)S(=O)(=O)c1cc2c3c(c1)C(C)C(=O)N3CCC2 (configuration not stated),"inconclusive: 39.8 µM [activator, single point]",–
COc1ccc(OCc2nc(N)nc(Nc3cccc(C)c3C)n2)cc1,"inconclusive: 12.6 µM [inhibitor, partial curve]",–
O=C(CSc1ccc(Cl)cc1)Nc1ccc(N2CCN(c3ccccc3)CC2)c(F)c1,"inconclusive: 2 µM [inhibitor, full curve]",–

SMILES,Potency,"max response, negative = inhibition"
O=C(Cc1ccccc1)NC1c2ccccc2-c2ccccc21,"inconclusive: 39.8 µM [inhibitor, single point]",–
CCOC(=O)c1[nH]c(C)c(C(=O)NCc2ccccc2Cl)c1C,"inconclusive: 31.6 µM [activator, single point]",–
COCCOc1cc(NC(=O)c2sccc2Oc2ccc([N+](=O)[O-])cc2F)c(Cl)cc1Cl,active: 15.8 µM,–
O=C(NCc1ccc2c(c1)CCN2C(=O)c1ccncc1)c1cccc(F)c1,–,inactive: 8.85%
O=C1N/C(=C\c2ccsc2)C(=O)N1Cc1ccc(F)cc1,"inconclusive: 39.8 µM [inhibitor, single point]",–
Cc1cc2oc3c(c(=O)c2cc1C)C(c1cccc(Br)c1)N(Cc1ccco1)C3=O (configuration not stated),"inconclusive: 3.16 µM [activator, partial curve]",–
COc1ccc(CNC(=O)C2CCN(S(=O)(=O)Cc3ccccc3)CC2)cc1,–,inactive: -6.8%
COc1ccc(CNC(=O)c2ccccc2SC)cc1,"inconclusive: 39.8 µM [inhibitor, single point]",–
Cc1cccc(NC(=O)c2cc3c(C)nn(-c4ccccc4)c3s2)c1,"inconclusive: 39.8 µM [inhibitor, single point]",–
CCOc1ccc2[nH]c(=O)c(CN(Cc3cccs3)Cc3nnnn3C(C)(C)CC)cc2c1,"inconclusive: 20 µM [activator, single point]",–
Cc1cccc(CC(=O)Nc2cccc(-c3cn4cccnc4n3)c2)c1,"inconclusive: 25.1 µM [activator, single point]",–
NC(=O)C[C@H]1NC(=O)[C@H](CCC(=O)O)NC(=O)c2cc([N+](=O)[O-])cc(I)c2NCCC[C@@H](C(N)=O)NC1=O,"inconclusive: 7.94 µM [activator, single point]",–
CC(=O)O[C@H]1C(=O)[C@@]2(C)C([C@H](OC(=O)c3ccccc3)[C@]3(O)C[C@H](OC(=O)[C@H](O)[C@@H](NC(=O)c4ccccc4)c4ccccc4)C(C)=C1C3(C)C)[C@]1(OC(C)=O)CO[C@@H]1C[C@@H]2OC(=O)[C@H](C)NC(=O)c1ccc(-c2c3ccc(=O)cc-3oc3cc(O)ccc23)c(C(=O)O)c1 (some centres not stated),–,inactive: 22.2%
COc1c(OC(C)=O)ccc(/C=C/c2ccc3cccc(OCc4ccccc4)c3n2)c1[N+](=O)[O-],active: 10 µM,–
COCCn1c(=S)[nH]c2cc(C(=O)N3CCc4ccccc43)ccc2c1=O,"inconclusive: 39.8 µM [inhibitor, single point]",–
CCOC(=O)C1=C(N)Oc2cc(C)oc(=O)c2C12C(=O)N1c3c(cccc32)C(C)CC1(C)C (configuration not stated),"inconclusive: 39.8 µM [activator, single point]",–
CC1(C)Cc2c(C#N)c(N3CCN(C(=O)c4ccco4)CC3)nc(Cc3ccccc3)c2CO1,–,inactive: 14.1%
CN(C)c1ccc(N=Cc2nc(-c3ccccc3)oc2OC(=O)c2cccc(Br)c2)cc1,active: 25.1 µM,–
COC(=O)CSc1nnc(-c2cccc(O)c2)o1,–,inactive: 1.03%
O=C(CCS(=O)(=O)c1nc(-c2ccc3c(c2)OCO3)cc(C(F)(F)F)n1)Nc1ccccc1C(F)(F)F,"inconclusive: 39.8 µM [inhibitor, single point]",–
O=C(c1ccccc1)N1CCC(c2nc3c(nnn3Cc3ccccc3Cl)c(=O)[nH]2)CC1,"inconclusive: 31.6 µM [activator, single point]",–

SMILES,Potency,"max response, negative = inhibition"
O=C(NC(Cc1ccccc1)C(=O)Oc1ccc2c(C(F)(F)F)cc(=O)oc2c1)OCc1ccccc1 (configuration not stated),"inconclusive: 25.1 µM [inhibitor, single point]",–
COc1ccc(OC2C(=O)N(CCc3ccc(OC)c(OC)c3)C2c2ccc3c(c2)OCO3)cc1 (configuration not stated),"inconclusive: 39.8 µM [activator, single point]",–
COc1ccc(OCC(=O)Nc2ccc3c(c2)N(C)C(=O)c2ccccc2S3)cc1,–,inactive: 2%
CC(C)CN(CC(C)C)c1nnc(NC(=O)Nc2cccc(C(F)(F)F)c2)s1,"inconclusive: 25.1 µM [activator, partial curve]",–
Cc1ccc(NC(=O)c2cnc(SCC(=O)N3CCCc4ccccc43)n(C)c2=O)cc1C,–,inactive: 13.8%
CCOC(=O)CN(C)Cc1c[nH]c2ccccc12,"inconclusive: 25.1 µM [inhibitor, single point]",–
Cc1oc(-c2ccccc2)nc1Cn1c(=O)cc(-c2ccccc2)c2c(C)nn(C)c21,–,inactive: -9.08%
Cc1ccc(NC(=O)C2CCCN(c3nc4ccccc4s3)C2)c(C)c1 (configuration not stated),–,inactive: 15.7%
Cc1cc(N2CCC(C(=O)NC3CCCCC3)CC2)nc(-c2ccccc2)n1,"inconclusive: 15.8 µM [inhibitor, partial curve]",–
CCOc1ccc(N(C)S(=O)(=O)c2cc(-c3cnc(C)o3)ccc2OC)cc1,"inconclusive: 39.8 µM [activator, single point]",–
COc1cc(/C=N/O)c(Br)cc1OCC(=O)Nc1ccccc1C,–,inactive: -5.24%
Cc1ccccc1NC(=O)C1CCN(S(=O)(=O)c2cccc3nonc23)CC1,–,inactive: -17.2%
O=C(NC(=Nc1nc2ccccc2o1)NC(=O)c1ccccc1)c1ccccc1,active: 12.6 µM,–
Cc1cc(=Nc2ccc3c(c2)c(N)cc(C)[n+]3C)nc(N)n1C,–,inactive: -1.94%
CCn1nc(NC(=O)c2ccncc2)c2cc3cccc(C)c3nc21,"inconclusive: 31.6 µM [activator, single point]",–
Cc1ccc(C(=O)COC(=O)C2CC(=O)N(c3nc(-c4ccccc4)cs3)C2)cc1C (configuration not stated),active: 31.6 µM,–
CC(=O)OC1C[C@H](O[C@@H]2C(O)C[C@H](O[C@@H]3C(O)C[C@@H](OC4CC[C@]5(C)C(CCC6C5CC(O)[C@@]5(C)C(C7=CC(=O)OC7)CC[C@@]65O)C4)OC3C)OC2C)O[C@H](C)[C@H]1O[C@H]1OC(CO)C(O)C(O)C1O (some centres not stated),"inconclusive: 3.98 µM [activator, full curve]",–
CC1=C(C)CC(C(=O)Nc2nc(-c3ccc(F)cc3)c(C)s2)C(C(=O)O)C1 (configuration not stated),"inconclusive: 39.8 µM [inhibitor, single point]",–
Cc1cc(C)cc(NC(=O)c2cc(S(=O)(=O)N3CCCCC3)c[nH]2)c1,–,inactive: -17.6%
Cc1ccnc(NC(=O)c2ccc(COc3ccc(Cl)cc3)o2)c1,–,inactive: 0.704%
